From US6214969A, “Luteinizing hormone releasing hormone analogs with cytotoxic moiety” (The Administrators of the Tulane Educational Fund, priority 1993, dated 2001)
Not every detail of the peptide structures is certain; ends, links or a residue may be inferred. Square brackets hold non-standard residues; d marks the D form. Peptide text beside a SMILES is read from it. * marks the point of attachment. X7 = N[C@H](Cc1ccc(N(CCCl)CCCl)cc1)C(=O)NC[C@H](NC(=O)[C@H](N)Cc1ccc(N(CCCl)CCCl)cc1)C(=O)*; X4 = N[C@H](Cc1ccc(N(CCCl)CCCl)cc1)C(=O)*; dPhe(4-Cl) = N[C@H](Cc1ccc(Cl)cc1)C(=O)O; d2Nal = N[C@H](Cc1ccc2ccccc2c1)C(=O)O; d3Pal = N[C@H](Cc1cccnc1)C(=O)O

Assays:
[1] = target: T1, membrane receptors of human breast cancer cells (LHRH receptors) (Homo sapiens, UniProt P30968); test: Receptor binding affinity for human breast cancer cell membranes, 125I-[D-Trp]6 LHRH as labelled ligand; conditions: 125I-[D-Trp]6 LHRH ligand, NB = no binding
T1 construct: from tissue
T1 sequence (P30968 1-328): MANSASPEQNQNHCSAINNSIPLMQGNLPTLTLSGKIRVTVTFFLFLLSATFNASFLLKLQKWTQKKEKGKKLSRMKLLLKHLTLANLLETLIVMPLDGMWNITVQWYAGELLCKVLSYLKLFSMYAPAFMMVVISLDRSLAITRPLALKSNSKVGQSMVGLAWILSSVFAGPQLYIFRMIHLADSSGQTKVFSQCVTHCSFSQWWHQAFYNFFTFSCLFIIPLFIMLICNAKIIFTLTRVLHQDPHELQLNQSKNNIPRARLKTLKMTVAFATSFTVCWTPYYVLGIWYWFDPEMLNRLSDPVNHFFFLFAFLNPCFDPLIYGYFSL
Experimental: Affinity for peptides to human breast cancer cell membranes is determined by using labelled LHRH and [D-Trp^6 ]LHRH. The assay is carried out similarly to that described by T. Kadar et al., Proc. Natl. Acad. Sci. USA, 85, 890-894 (1988) and M. Fekete et al., Endocrinology, 124, 946-955 (1989).
(§1) Table 2 presents the antiovulatory activity and human breast cancer cell membrane receptor binding affinity of the claimed compounds having LHRH-inhibiting properties. The inhibitory action was determined in vivo, in 4-day cycling rats as described [A. Corbin and C. W. Beattie, Endocr. Res. Commun., 2, 1-23 (1975)].

[2] = test system: MCF-7 human breast cancer cell line; test: Inhibition of 3H-thymidine incorporation into DNA, MCF-7; assay type: cell-based
Experimental: Ability of peptides of Formula I to inhibit incorporation of [^3 H]thymidine into DNA of monolayer cultures the human mammary tumor cell line MCF-7 is assayed as described [V. K. Sondak et al., Cancer Research, 44, 1725-1728 (1984); F. Holzel et al., J. Cancer Res. Clin. Oncol. 109, 217-226 (1985); M. Albert et al., J. Cancer Res. Clin. Oncol. 109, 210-216 (1985)].
(§2) 200,000 cells in 200 μl of […]+2% CFBS were incubated with 1, 5 or 10 μg cytotoxic analogs for 3 hours or 23 hours then 1 μCi ^3 H-thymidine added and incubated an additional 60 min. DNA extracted with 1 N perchloric acid and the radioactivity measured.

[3] = test system: ovulation in 4-day cycling rats; test: In vivo antiovulatory activity in 4-day-cycling rats; conditions: 10 μg per rat
Experimental: This activity of the peptides is determined in 4-day-cycling rats as described [A. Corbin and C. W. Beattie, Endocr. Res. Commun., 2, 1-23 (1975)].
as §1

T47D Cell line = test: Inhibition of 3H-thymidine incorporation into DNA, T47D; assay type: cell-based, human
Experimental: as §2

SkBr-3 Cell line = test: Inhibition of 3H-thymidine incorporation into DNA, SkBr-3; assay type: cell-based, human
Experimental: as §2

MDA-MB-231 Cell Line = test: Inhibition of 3H-thymidine incorporation into DNA, MDA-MB-231; assay type: cell-based, human
Experimental: as §2

CC(=O)N[C@H](Cc1ccc2ccccc2c1)C(=O)N[C@H](Cc1ccc(Cl)cc1)C(=O)N[C@H](Cc1c[nH]c2ccccc12)C(=O)N[C@@H](CO)C(=O)N[C@@H](CCCNC(=N)N)C(=O)N[C@H](CCCCNC(=O)[C@H](CNC(=O)[C@H](N)Cc1ccc(N(CCCl)CCCl)cc1)NC(=O)[C@H](N)Cc1ccc(N(CCCl)CCCl)cc1)C(=O)N[C@@H](CC(C)C)C(=O)N[C@@H](CCCNC(=N)N)C(=O)N1CCC[C@H]1C(=O)N[C@H](C)C(N)=O [compound 23, Ac-D-Nal(2)-D-Phe(4Cl)-D-Trp-Ser-Arg-D-Lys[A2 pr(D-Mel)2 ]-Leu-Arg-Pro-D-Ala-NH2] (Ac-[d2Nal][dPhe(4-Cl)][dW]SR[dK](X7)LRP[dA]-NH2)
Affinity Constant Ka1 ([1]; Table 2 (antagonists)): 3.82 nM⁻¹

CC(C)C[C@H](NC(=O)[C@@H](CCCCNC(=O)[C@H](N)Cc1ccc(N(CCCl)CCCl)cc1)NC(=O)[C@H](Cc1ccc(O)cc1)NC(=O)[C@H](CO)NC(=O)[C@H](Cc1c[nH]c2ccccc12)NC(=O)[C@H](Cc1c[nH]cn1)NC(=O)[C@@H]1CCC(=O)N1)C(=O)N[C@@H](CCCNC(=N)N)C(=O)N1CCC[C@H]1C(=O)NCC(N)=O [compound 1, pGlu-His-Trp-Ser-Tyr-D-Lys(D-Mel)-Leu-Arg-Pro-Gly-NH2]
Affinity Constant Ka1 ([1]; Table 1 (agonists)): 66.74 nM⁻¹ | Affinity Constant Ka2 ([1]; Table 1 (agonists)): 1.07 µM⁻¹

CC(C)C[C@H](NC(=O)[C@@H](CCCNC(=O)[C@H](N)Cc1ccc(N(CCCl)CCCl)cc1)NC(=O)[C@H](Cc1ccc(O)cc1)NC(=O)[C@H](CO)NC(=O)[C@H](Cc1c[nH]c2ccccc12)NC(=O)[C@H](Cc1c[nH]cn1)NC(=O)[C@@H]1CCC(=O)N1)C(=O)N[C@@H](CCCNC(=N)N)C(=O)N1CCC[C@H]1C(=O)NCC(N)=O [compound 8, pGlu-His-Trp-Ser-Tyr-D-Orn(D-Mel)-Leu-Arg-Pro-Gly-NH2]
Affinity Constant Ka1 ([1]; Table 1 (agonists)): 11.51 nM⁻¹ | Affinity Constant Ka2 ([1]; Table 1 (agonists)): 0.34 µM⁻¹

CC(C)C[C@H](NC(=O)[C@@H](CCCNC(=O)[C@H](CNC(=O)[C@H](N)Cc1ccc(N(CCCl)CCCl)cc1)NC(=O)[C@H](N)Cc1ccc(N(CCCl)CCCl)cc1)NC(=O)[C@H](Cc1ccc(O)cc1)NC(=O)[C@H](CO)NC(=O)[C@H](Cc1c[nH]c2ccccc12)NC(=O)[C@H](Cc1c[nH]cn1)NC(=O)[C@@H]1CCC(=O)N1)C(=O)N[C@@H](CCCNC(=N)N)C(=O)N1CCC[C@H]1C(=O)NCC(N)=O [compound 12, pGlu-His-Trp-Ser-Tyr-D-Orn[A2 pr(D-Mel)2 ]-Leu-Arg-Pro-Gly-NH2]
Affinity Constant Ka1 ([1]; Table 1 (agonists)): 6.47 nM⁻¹

CC(=O)N[C@H](Cc1ccc2ccccc2c1)C(=O)N[C@H](Cc1ccc(Cl)cc1)C(=O)N[C@H](Cc1cccnc1)C(=O)N[C@@H](CO)C(=O)N[C@@H](CCCNC(=N)N)C(=O)N[C@H](CCCCNC(=O)[C@H](N)Cc1ccc(N(CCCl)CCCl)cc1)C(=O)N[C@@H](CC(C)C)C(=O)N[C@@H](CCCNC(=N)N)C(=O)N1CCC[C@H]1C(=O)N[C@H](C)C(N)=O [compound 26, Ac-D-Nal(2)-D-Phe(4Cl)-D-Pal(3)-Ser-Arg-D-Lys(D-Mel)-Leu-Arg-Pro-D-Ala-NH2] (Ac-[d2Nal][dPhe(4-Cl)][d3Pal]SR[dK](X4)LRP[dA]-NH2)
% Inhibition at 4 hrs ([2]; dose 1 μg/ml): 31% | % Inhibition at 24 hrs ([2]; dose 1 μg/ml): 33% | % Inhibition at 4 hrs ([2]; dose 10 μg/ml): 49% | % Inhibition at 24 hrs ([2]; dose 10 μg/ml): 54% | % Ovulation Blocked [3]: 100% | Affinity Constant Ka1 ([1]; Table 2 (antagonists)): 0.97 nM⁻¹ | Affinity Constant Ka2 ([1]; Table 2 (antagonists)): 1.34 µM⁻¹

CC(C)C[C@H](NC(=O)[C@@H](CCCCNC(=O)[C@H](CNC(=O)[C@H](N)Cc1ccc(N(CCCl)CCCl)cc1)NC(=O)[C@H](N)Cc1ccc(N(CCCl)CCCl)cc1)NC(=O)[C@H](Cc1ccc(O)cc1)NC(=O)[C@H](CO)NC(=O)[C@H](Cc1c[nH]c2ccccc12)NC(=O)[C@H](Cc1c[nH]cn1)NC(=O)[C@@H]1CCC(=O)N1)C(=O)N[C@@H](CCCNC(=N)N)C(=O)N1CCC[C@H]1C(=O)NCC(N)=O [compound 5, pGlu-His-Trp-Ser-Tyr-D-Lys[A2 pr(D-Mel)2 ]-Leu-Arg-Pro-Gly-NH2]
% Inhibition at 4 hrs (T47D Cell line; dose 1 μg/ml): 31% | % Inhibition at 24 hrs (T47D Cell line; dose 1 μg/ml): 15% | % Inhibition at 4 hrs (T47D Cell line; dose 10 μg/ml): 39% | % Inhibition at 24 hrs (T47D Cell line; dose 10 μg/ml): 28% | % Inhibition at 4 hrs (SkBr-3 Cell line; dose 1 μg/ml): 24% | % Inhibition at 24 hrs (SkBr-3 Cell line; dose 1 μg/ml): 30% | % Inhibition at 4 hrs (SkBr-3 Cell line; dose 10 μg/ml): 21% | % Inhibition at 24 hrs (SkBr-3 Cell line; dose 10 μg/ml): 66% | Affinity Constant Ka1 ([1]; Table 1 (agonists)): 30.48 nM⁻¹ | Affinity Constant Ka2 ([1]; Table 1 (agonists)): 3.45 µM⁻¹ | % Inhibition at 4 hrs (MDA-MB-231 Cell Line; dose 1 μg/ml): 20% | % Inhibition at 24 hrs (MDA-MB-231 Cell Line; dose 1 μg/ml): 15% | % Inhibition at 4 hrs (MDA-MB-231 Cell Line; dose 10 μg/ml): 20% | % Inhibition at 24 hrs (MDA-MB-231 Cell Line; dose 10 μg/ml): 62%
